# Measurements published in PubChem BioAssay AID1956 (SRMLSC, 2009).
# This is one part of the list. Further columns of the screen follow, without active or inactive calls.
# Experiment: compounds boosting herpes simplex virus growth – fold increase, host cell viability (AID 1956); further: tested in PC3 cells
# Details: HSV replication augmentation in cells; fold increase: measured here: primary screen fold increase 10 uM, at 10 µM, stronger effect = higher value; viability: measured here: host cell viability series, at 25 µM, stronger effect = lower value
Structure (SMILES),fold increase,viability [%]
Cc1ccc(NC(=S)NCCC(c2ccccc2)c2ccccc2)c(C)c1,1.09,–
O=[N+]([O-])c1ccc(/C=N/Nc2ccc3ccccc3c2)o1,2.03,91.6
N#CC1=C(N)C(C#N)(C#N)[C@H](c2ccsc2)[C@H]2COCC=C12,1.32,89
COC(=O)c1ccccc1NC(=O)Oc1ccc(C(C)C)cc1,1.51,97.6
COc1cc(/C=N/N2C(=O)CSC2=S)cc(Br)c1O,2.89,90.7
CCN(CC)c1ccc2c(Cl)cc(=O)oc2c1,1.08,89.9
N#C/C(=C\c1c(N2CCC(C(N)=O)CC2)nc2ccccn2c1=O)S(=O)(=O)c1ccc(Cl)cc1,1.36,96.2
C=CCN1C(=O)/C(=C/C=C2/N(CC)c3ccc(S(=O)(=O)N(C)C)cc3N2CC)SC1=S,5.57,–
CCN(CC)c1ccc(/C=C(/C#N)c2nc3ccc(C)cc3[nH]2)c(OC(C)C)c1,6.39,70.4
Cc1ccc(N=Cc2c(O)n(-c3nccs3)c(=O)c3ccccc23)c(C)c1,2.54,69.8
CCOc1ccc(NC(=O)COc2nsnc2N2CCCCC2)cc1,1.45,102
CCO/C=C1\SC(=S)N(c2ccc(Cl)cc2)C1=O,1.6,97.7
COc1cc(/C=C2/SC(=S)N(CC3CCCO3)C2=O)ccc1O (configuration not stated),9.28,–
CC(=O)c1sc(N/N=C\c2ccc(Br)cc2)nc1C,2.91,94.1
O=c1c2ccccc2ncn1-c1ccccc1F,1.38,103
Cc1ccc(C(=O)N/N=C\c2cc(Br)c(Br)o2)cn1,1.4,85.1
CSc1ccc(C2C(C#N)=C(N)Oc3c2ccc(=O)c2c(C)oc(C)c32)cc1 (configuration not stated),3.63,88.5
COc1ccc(C2C(C#N)=C(N)SC(N)=C2C#N)cc1OC,1.39,95.4
N#Cc1cc(C(=O)c2cc(Cl)ccc2O)cn(-c2ccccc2)c1=O,1.52,85.7
Cc1ccc(O)c(C(=O)c2cc(C#N)c(=O)n(-c3nccs3)c2)c1,2.21,–
Fc1ccc(-c2cc(C(F)(F)F)nc(-n3cncn3)n2)cc1,1.34,94.9
CC(C)CC(C(=O)Nc1oc(-c2ccccc2)c(-c2ccccc2)c1C#N)N1C(=O)c2ccccc2C1=O (configuration not stated),1.17,–
COc1cc(/C=C2/S/C(=N/S(=O)(=O)Cc3ccccc3)NC2=O)c([N+](=O)[O-])cc1OC,1.19,–
COc1ccc(NC(=O)Oc2cc(C)ccc2C(C)C)cc1,1.33,95.7

Structure (SMILES),fold increase,viability [%]
O=C(O)/C=C/C(=O)Nc1ccc(Cl)cc1C(=O)c1ccccc1,1.57,93.8
O=C1C=C(Nc2cccc(O)c2)CC(c2ccco2)C1 (configuration not stated),1.33,92.5
Cc1cc(C)cc(NC(=O)C(OC(=O)C2=COCCO2)c2ccccc2)c1 (configuration not stated),1.41,99.3
COC(=O)c1cc(NC(=O)c2cccc(Cl)c2)c(=O)oc1/C=C/Nc1cc(C)cc(C)c1,8.89,–
Cc1cccn2c(=O)c(/C=C3\SC(=S)NC3=O)c(NCCCN3CCOCC3)nc12,2.15,85.9
CC(C)C(C)NC(=O)CN1C(=O)NC2(CCCCCC2)C1=O (configuration not stated),1.35,95.4
O=c1c2ccccc2sc2ccc(NCCCN3CCOCC3)cc12,1.45,89.3
COC(=O)C1=NN(C(=O)c2cccc(Br)c2)C(O)(c2ccc(Cl)cc2)C1 (configuration not stated),1.37,101
CN1CC=C2C(C#N)=C(N)C(C#N)(C#N)[C@H](c3cccs3)[C@H]2C1,1.55,–
CCN(CC)S(=O)(=O)c1ccc(C)c(NC(=O)COc2ccc(Br)cc2Cl)c1,1.49,93.5
CSc1nc(N2CCOCC2)c2ccccc2n1,1.54,93.3
Cc1cc(N/N=C/c2ccc([N+](=O)[O-])o2)nc2ccccc12,1.54,–
CCNc1ccc2noc3c2c1C(=O)c1ccccc1-3,5.97,79.5
CCSc1nnc2c(n1)OC(c1ccc(C(=O)O)cc1)N(C(C)=O)c1ccccc1-2 (configuration not stated),1.32,101
Cc1cc(C)n(-c2ccc(C(=O)OCn3nnc4ccccc4c3=O)cc2)n1,1.45,94.2
COc1cccc(C(=O)Nc2nc(-c3ccccc3)c(-c3ccccc3)o2)c1,1.34,–
CCN1/C(=C/c2ccc3cc(C)ccc3[n+]2C)Sc2ccc3sccc3c21,2.12,2.43
N#Cc1c(C(F)(F)F)cc(-c2ccco2)nc1SCc1ccncc1,1.46,99.4
COc1cc(N2CCCC2)c(OC)cc1/C=C1/NC(=S)NC1=O,3.94,–
Cc1ccc(CCC(=O)Nc2ncc(Cc3cccc(Cl)c3Cl)s2)o1,1.67,–
O=C(CSc1ncn[nH]1)Nc1c(Br)cc([N+](=O)[O-])cc1Br,1.34,98.1
Cc1cc(-n2cnc(-c3cn[nH]c3C)n2)no1,1.35,96.6
CCc1ccc(C(=O)/C=C/NCc2ccc(F)cc2)cc1,1.34,105
Cc1cc(C)nc(NC2=NCC(=O)N2CCc2c[nH]c3ccccc23)n1,1.21,–

Structure (SMILES),fold increase,viability [%]
CCOc1cc(/C=C2/SC(=S)NC2=O)ccc1OC(=O)c1ccco1,2.99,90.7
CC(C)(C)c1cc(C(=O)NN)n(Cc2ccc(Cl)cc2Cl)n1,1.42,92.4
Cc1ccn2c(Nc3ccc4c(c3)OCO4)c(-c3ccccn3)nc2c1,1.61,–
Cn1c(Cn2c(=O)sc3ccccc32)nnc1SCC(=O)NCCc1ccccc1,1.37,97.6
CCn1c(C)c(C2=CCN(S(=O)(=O)c3ccc(C)cc3)CC2)c2ccccc21,1.38,88.1
CN(C)c1ccc(/C=C(/C#N)C(=O)NCc2ccccc2)o1,3.52,–
COc1cc(/C=C(\C#N)c2nc3ccccc3n2C)cc(OC)c1O,8.12,92.3
COc1ccc(Nc2ccccc2N)cc1,1.78,–
N#Cc1c(-c2ccccc2F)cc(C2CC2)nc1SCC(=O)c1cccs1,2.33,–
COCCCn1c(=O)/c(=C\c2ccccc2OC(F)F)s/c1=C(/C#N)C(=O)NC(C)C,1.86,96.8
CN(C)S(=O)(=O)c1cccc(-c2nn(-c3ccccc3)cc2/C=C2\SC(=S)NC2=O)c1,1.34,68.3
O=C(Nc1ccc2[nH]c(=S)sc2c1)Nc1ccccc1F,1.39,–
COCCNC(=O)C(=O)c1cc(C)n(-c2ccc([N+](=O)[O-])cc2)c1C,1.6,90.4
C=CCOc1cccc(C2c3c(oc4ccc(F)cc4c3=O)C(=O)N2CCCN2CCOCC2)c1 (configuration not stated),1.35,98.2
CCCCn1nc(-c2ccccc2)c2nc3ccccc3nc21,2.32,99.2
CCOCCCNC(=O)CN1C(=O)C(CC)Oc2ccccc21 (configuration not stated),1.33,90.1
N#Cc1c2c(c(=S)n(-c3ccccc3)c1N)CCCC2,1.39,94.4
C[C@@H]1CN(Cc2nc(Cc3ccccc3F)no2)C[C@H](C)O1,1.73,99.5
O=C1/C(=C/c2c[nH]c3ccccc23)CCC/C1=C\c1c[nH]c2ccccc12,1.5,–
Cc1oc(C)c2c(=O)ccc3c(c12)OC(N)=C(C#N)C3c1ccc(F)cc1 (configuration not stated),10.3,80.7
CCN1CCc2c(sc(NC(=S)NC(=O)c3ccc(Cl)cc3)c2C(N)=O)C1,1.67,91.4
Cc1ccc(/C=C/c2nc3ccccc3[nH]2)o1,1.55,–
COc1ccc(N=Cc2c(O)c3ccccc3n2C(C)=O)cc1,2.57,91.5
CCCCCCc1cc2cc(C(=O)NC)c(=N)oc2cc1O,1.65,92.7

Structure (SMILES),fold increase,viability [%]
CCOC(=O)c1c(C)nc2sc(C(=O)Nc3ccc(C(C)=O)cc3)c(N)c2c1-c1ccc(OC)cc1,1.12,–
CCOC(=O)Cn1c(=O)c(-c2cc(Br)ccc2N)nc2ccccc21,1.33,91.1
CC(C)N(C(=O)N1CCC(c2nc(-c3ccncc3)no2)CC1)C(C)C,1.36,73.4
OC1(c2ccc3c(c2)OCO3)CCN(Cc2ccccn2)CC1,1.44,103
COc1cc(/C=C(/C#N)c2nc3ccccc3[nH]2)ccc1OC(=O)c1ccco1,3.06,84
COC(=O)c1ccc(-c2noc(CN(C)CCC3CCCCO3)n2)cc1 (configuration not stated),1.39,92.2
CCOc1cccc(=O)c2c(C)n(-c3ccc(C(=O)O)cc3)c(C)c12,1.61,98.4
COc1cccc(OC(C)c2ccnc3nc(/N=C/N(C)C)nn23)c1 (configuration not stated),1.34,96
Cc1c2ccccc2nc2c(F)c(NC(C)C)c(F)c(F)c12,1.41,89.2
CSC1=NSC2=NC(=O)/C(=C\c3coc4ccccc4c3=O)C(=N)N12,2.23,90.7
CCN(CC)c1ccc(/C=C/c2cc(-c3ccccc3)c3ccccc3n2)cc1,4.66,95.3
O=C1CC(c2ccccc2Cl)=NN(c2ncnc3ccccc23)C1=O,1.62,–
CCOc1cccc(=O)c2c(C)oc(C)c12,2.6,96.5
CCOC(=O)C1=C(C)NC(=O)NC1c1ccc(N2CCC(c3ccccc3)=N2)cc1 (configuration not stated),1.44,91.9
C=CCN1C(=O)/C(=C/c2ccc(O)c(OC)c2)S/C1=N/c1nccs1,7.3,–
COc1cc(/C=C2/SC(=S)N(C)C2=O)ccc1OC(=O)c1ccco1,4.29,85.7
c1ccc2c(c1)nnn2Cc1nnc2sc(-c3ccncc3)nn12,1.43,99.1
O=C(Oc1c(-c2ccco2)oc2ccccc2c1=O)c1cccnc1,5.5,99.4
Nc1c(C(=O)c2cccs2)sc2nsc(SCCN3CCCCC3)c12,7.25,–
O=C(N=c1ccn(-c2nc3ccccc3nc2NS(=O)(=O)c2ccc(Cl)cc2)cc1)c1cccs1,2.06,90.7
CCCN1C(=O)/C(=C\C=C2/C=CN(CC)c3ccccc32)SC1=S,1.82,86.6
COc1ccc(N2CCN(S(=O)(=O)Cc3ccccc3)CC2)cc1,1.53,105
Cc1cccc(NC(=O)c2sc3nc4c(c(-c5cccs5)c3c2N)CN(C)CC4)c1,1.32,90.3
Nc1cc2c3c(cccc3c1)C(=O)N(CCN1CCCC1)C2=O,1.48,–
